Measured values published in the supplement of paper PMC5655136.
Read counts after selection give these values, which scatter widely.

Each sequence was assayed on NB7 (assay: fold depletion of shRNA, plasmid library share / infected cells without Dox share (9 days) (ratio); higher = more depleted after infection (more toxic, leaky expression from a Tet-inducible vector; NB7 is a neuroblastoma line without caspase-8)). Conditions: shRNA pool: CD95 ORF + CD95 3'UTR + Venus libraries.
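Also: shRNA barcodes quantified by deep sequencing of PCR amplicons from cellular DNA, counts expressed as percent of each subpool, ratio averaged over two biological duplicates.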

Sequence	fold depletion of shRNA
TCAGACTATCATCCTCAAGGA	1.97
AGCTGGCTGTAAATACTGCTT	2.61
AACTTCATGGAAAGAAAGAAG	0.864
AAGGCTTTGTTCGAAAGAATG	1.24
TTTGTTTATAACTCTGAGAAG	0.835
TATGAATGTAATCAGTGTATG	1.1
TCCACTAATTGTTTGGGTGAA	0.89
TGAAGCTGATCTGCACCACCG	2.34
TCAGTTCTGAGTATATGCAAT	0.926
CATCCTGGTCGAGCTGGACGG	0.789
TATACAATATTTCAATTGTGA	0.848
CCAAAATAGATGAGATCAAGA	0.856
ACCACTATTGCTGGAGTCATG	1.4
TACTTAATAGTCCACCAAAAG	1.99
CAAAGACCTTTGCACAGTTTA	4.6
CTTGCAGAGAAAATTCAGACT	0.89
TGGGTGAAGAGAAAGGAAGTA	1.07
AGCGCACCATCTTCTTCAAGG	0.762
CCCAAGTTTCTAAGATTTAAG	1.22
GAGAAAGGAAGTACAGAAAAC	1.11
ACCAAGTGCAGATGTAAACCA	1.5
ATATCACCGCCGACAAGCAGA	2.63
TACTGTATGTGAACACTGTGA	1.58

Sequence	fold depletion of shRNA
AAAACTACCTACTTCTTTCTC	1.76
TTGTGAATTCACATAGAAAAC	1.17
GGCTAACCCCACTCTATGAAT	1.67
CAATATTTCAATTGTGAATTC	0.516
ATGTAAACCAAACTTTTTTTG	1.96
GAAGCAGCACGACTTCTTCAA	2.65
GAAGATCATATTTATGTAAAG	0.766
GAATGCACACTCACCAGCAAC	0.969
TGGCATCAACTTCATGGAAAG	1.63
CGCCGGGATCACTCTCGGCAT	1.96
GATTTAAGATTCTCCTTACTA	0.939
GCTGAAATATCAGTTACTGAA	1.14
GGGCTACGGCCTGCAGTGCTT	1.35
ATGCACACTCACCAGCAACAC	2.24
GGAGTCATGACACTAAGTCAA	2.72
CAAATTCAGTTCTGAGTATAT	0.651
GCCAACATATTTGTAGATTTT	1.13
TAATATTTATATTTCTGTAAA	1.08
AACAGGCAGGCCACTTTGCCT	1.95
GACCCTGAAGCTGATCTGCAC	1.05
CAGCTTATACATAGCAATGGT	1.62
AAACCAAGGTTCTCATGAATC	0.981
AGAAGAAGCTATGACCTTTTG	0.874

Sequence	fold depletion of shRNA
ATCATCAAGGAATGCACACTC	1.18
TTATATATGTGTATGCATTTT	0.815
TTACTACAGTTGAGACTCAGA	1.13
AGTGTATGTTAGTACAAATGT	0.97
TACCTCTGGTTCTTACGTCTG	1.76
AGTCAAGTTAAAGGCTTTGTT	1.31
CTCTGATAATTCTAGAGATTT	0.813
CCTCCAAGGATGTTTAAAATC	0.528
CTTTGTTTATAACTCTGAGAA	0.54
AACTCCAAGGGATTGGAATTG	1.67
GCTGAAGAGCCAACATATTTG	3.15
CTTTGAAAGTTTGTATTAAAT	0.939
TCTTCTTCTTTTGCCAATTCC	0.803
ACGTTTAAATATCTTTGAAAG	0.967
AGCATTTTGAGCAGGAGAGTA	2.76
TCCAAGACACAGCAGAACAGA	1.1
AAAGGCAAGACTGCCCTTAGA	6.08
GACCCCAACGAGAAGCGCGAT	0.869
TCAGGCATCAAAAGCATTTTG	0.833
TTTTAATATCTCATGATTCTG	0.881
GTTTGACTATTATATATGTGT	0.9
CTTTGTTCGAAAGAATGGTGT	1.07
